Experimental findings from publication PMC6777367 are described below.

Chains of the proteins cited; added tags and fusions are not shown.
UniProt Q8IY31: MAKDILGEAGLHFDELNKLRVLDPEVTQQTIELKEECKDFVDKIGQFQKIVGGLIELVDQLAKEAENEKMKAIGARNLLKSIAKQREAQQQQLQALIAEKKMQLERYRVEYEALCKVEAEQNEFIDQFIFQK

Results are given in words; binding and its absence hold for the method and conditions named. In cells and extracts the contact can be indirect. Some results given as binding are weak or reduced against the parent protein; the word gives no strength. For some assays here: Tags and fused reporters may be left off the sequences shown.

One test addresses T1, IFT25–IFT27 (UniProt Q9Y547).
T1 sequence 1: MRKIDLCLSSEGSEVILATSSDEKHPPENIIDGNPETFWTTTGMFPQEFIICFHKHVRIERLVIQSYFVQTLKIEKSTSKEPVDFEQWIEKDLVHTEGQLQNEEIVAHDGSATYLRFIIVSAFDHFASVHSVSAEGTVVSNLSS
T1 sequence 2: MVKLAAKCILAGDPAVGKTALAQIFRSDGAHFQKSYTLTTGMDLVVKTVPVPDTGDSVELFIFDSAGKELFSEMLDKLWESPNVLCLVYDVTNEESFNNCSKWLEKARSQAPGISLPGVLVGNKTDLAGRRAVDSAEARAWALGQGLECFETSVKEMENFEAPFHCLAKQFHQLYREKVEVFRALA
Kind of test: co-IP; visible immunoprecipitation (VIP) assay: lysates of co-transfected HEK293T cells (HMDEKN buffer: 10 mM HEPES pH 7.4, 5 mM MgSO4, 1 mM DTT, 0.5 mM EDTA, 25 mM KCl, 0.05% NP-40) precipitated by the EGFP fusion with GST-tagged anti-GFP nanobody on glutathione-Sepharose 4B beads; red fluorescence on the beads seen by microscopy.

For test [1], the target named is T2, EGFP-IFT38(WT) (human) (UniProt Q96AJ1).
T2 sequence: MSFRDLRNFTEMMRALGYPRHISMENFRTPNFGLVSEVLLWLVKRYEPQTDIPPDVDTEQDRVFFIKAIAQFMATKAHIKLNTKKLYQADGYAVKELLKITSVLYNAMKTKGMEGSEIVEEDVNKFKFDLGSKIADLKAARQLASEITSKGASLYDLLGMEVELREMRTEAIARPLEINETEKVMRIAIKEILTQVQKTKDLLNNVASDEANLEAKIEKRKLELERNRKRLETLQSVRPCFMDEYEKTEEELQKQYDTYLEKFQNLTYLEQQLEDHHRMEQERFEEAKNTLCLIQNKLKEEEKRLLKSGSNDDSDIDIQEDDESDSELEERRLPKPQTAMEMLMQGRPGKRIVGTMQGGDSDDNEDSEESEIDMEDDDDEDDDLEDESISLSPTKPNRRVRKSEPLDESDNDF
The test is described as follows: co-IP; as the VIP assay (EGFP fusion precipitated from HEK293T lysates with GST-tagged anti-GFP nanobody beads), the beads then analysed by conventional immunoblotting with anti-mChe or anti-RFP and anti-GFP antibodies. On the technique in general: Immunoblotting shows a protein as a band on a membrane.

For test [2], the target named is T2, EGFP-IFT38(WT) (human). Kind of test: co-IP; visible immunoprecipitation (VIP) assay: lysates of co-transfected HEK293T cells (HMDEKN buffer: 10 mM HEPES pH 7.4, 5 mM MgSO4, 1 mM DTT, 0.5 mM EDTA, 25 mM KCl, 0.05% NP-40) precipitated by the EGFP fusion with GST-tagged anti-GFP nanobody on glutathione-Sepharose 4B beads; red fluorescence on the beads seen by microscopy.

A further test addresses T3, EGFP-IFT38(ΔC) (human) (UniProt Q96AJ1).
T3 sequence: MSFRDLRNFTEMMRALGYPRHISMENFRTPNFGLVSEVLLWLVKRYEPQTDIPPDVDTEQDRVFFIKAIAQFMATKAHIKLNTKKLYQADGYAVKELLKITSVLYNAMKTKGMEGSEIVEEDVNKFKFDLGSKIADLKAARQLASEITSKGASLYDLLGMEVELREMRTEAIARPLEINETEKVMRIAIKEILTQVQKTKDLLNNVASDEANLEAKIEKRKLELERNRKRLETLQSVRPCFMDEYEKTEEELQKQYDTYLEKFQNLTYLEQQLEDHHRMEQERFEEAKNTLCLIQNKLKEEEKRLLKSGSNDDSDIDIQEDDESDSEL
The test is described as above.

For test [3], the target named is T2, EGFP-IFT38(WT) (human). The description is as above. The source holds these as a separate data set.

Consider “all subunits of the BBSome (co-expressed, Fig. S1A) (from UniProt Q8NFJ9 1-593; Q9BXC9 1-721; Q96RK4 1-519; Q8N3I7 1-341; Q8IWZ6 1-715; Q8TAM2 1-541; Q3SYG4 1-887; A8MTZ0 1-92) (complex)”, for which the binding result in the test with IFT25–IFT27 is “no binding”.
In the case of “core subunits of the BBSome (co-expressed, Fig. S1A) (from UniProt Q8NFJ9 1-593; Q9BXC9 1-721; Q8IWZ6 1-715; Q3SYG4 1-887) (complex)”, the binding entry with IFT25–IFT27 is on record as “no binding”.
“mChe-BBS2+BBS9 (co-expressed) (from UniProt Q9BXC9 1-721; Q3SYG4 1-887) (complex)”: the binding entry with EGFP-IFT38(WT) (human) [1] and with EGFP-IFT38(WT) (human) [2] was “binds” throughout.
Regarding “mChe-fused IFT20 (from UniProt Q8IY31 1-132)”, the binding entry with EGFP-IFT38(ΔC) (human) and with EGFP-IFT38(WT) (human) [2] was “binds” each time.

B1: mCherry (mChe)-fused BBS2 (protein, UniProt Q9BXC9 1-721)
chain: MLLPVFTLKLRHKISPRMVAIGRYDGTHPCLAAATQTGKVFIHNPHTRNQHVSASRVFQSPLESDVSLLSINQAVSCLTAGVLNPELGYDALLVGTQTNLLAYDVYNNSDLFYREVADGANAIVLGTLGDISSPLAIIGGNCALQGFNHEGSDLFWTVTGDNVNSLALCDFDGDGKKELLVGSEDFDIRVFKEDEIVAEMTETEIVTSLCPMYGSRFGYALSNGTVGVYDKTSRYWRIKSKNHAMSIHAFDLNSDGVNELITGWSNGKVDARSDRTGEVIFKDNFSSAIAGVVEGDYRMDGHIQLICCSVDGEIRGYLPGTAEMRGNLMDTSAEQDLIRELSQKKQNLLLELRNYEENAKAELASPLNEADGHRGIIPANTRLHTTLSVSLGNETQTAHTELRISTSNDTIIRAVLIFAEGIFTGESHVVHPSIHNLSSSICIPIVPPKDVPVDLHLKAFVGYRSSTQFHVFESTRQLPRFSMYALTSLDPASEPISYVNFTIAERAQRVVVWLGQNFLLPEDTHIQNAPFQVCFTSLRNGGHLHIKIKLSGEITINTDDIDLAGDIIQSMASFFAIEDLQVEADFPVYFEELRKVLVKVDEYHSVHQKLSADMADHSNLIRSLLVGAEDARLMRDMKTMKSRYMELYDLNRDLLNGYKIRCNNHTELLGNLKAVNQAIQRAGRLRVGKPKNQVITACRDAIRSNNINTLFKIMRVGTASS
B1: the binding entry with EGFP-IFT38(WT) (human) [3] and with EGFP-IFT38(WT) (human) [1] was “no binding” throughout.

B2: mChe-BBS1+BBS9 (co-expressed) (complex, UniProt Q8NFJ9 1-593; Q3SYG4 1-887)
chain 1: MAAASSSDSDACGAESNEANSKWLDAHYDPMANIHTFSACLALADLHGDGEYKLVVGDLGPGGQQPRLKVLKGPLVMTESPLPALPAAAATFLMEQHEPRTPALALASGPCVYVYKNLRPYFKFSLPQLPPNPLEQDLWNQAKEDRIDPLTLKEMLESIRETAEEPLSIQSLRFLQLELSEMEAFVNQHKSNSIKRQTVITTMTTLKKNLADEDAVSCLVLGTENKELLVLDPEAFTILAKMSLPSVPVFLEVSGQFDVEFRLAAACRNGNIYILRRDSKHPKYCIELSAQPVGLIRVHKVLVVGSTQDSLHGFTHKGKKLWTVQMPAAILTMNLLEQHSRGLQAVMAGLANGEVRIYRDKALLNVIHTPDAVTSLCFGRYGREDNTLIMTTRGGGLIIKILKRTAVFVEGGSEVGPPPAQAMKLNVPRKTRLYVDQTLREREAGTAMHRAFQTDLYLLRLRAARAYLQALESSLSPLSTTAREPLKLHAVVQGLGPTFKLTLHLQNTSTTRPVLGLLVCFLYNEALYSLPRAFFKVPLLVPGLNYPLETFVESLSNKGISDIIKVLVLREGQSAPLLSAHVNMPGSEGLAAA
chain 2: MSLFKARDWWSTILGDKEEFDQGCLCLANVDNSGNGQDKIIVGSFMGYLRIFSPHPAKTGDGAQAEDLLLEVDLRDPVLQVEVGKFVSGTEMLHLAVLHSRKLCVYSVSGTLGNVEHGNQCQMKLMYEHNLQRTACNMTYGSFGGVKGRDLICIQSMDGMLMVFEQESYAFGRFLPGFLLPGPLAYSSRTDSFLTVSSCQQVESYKYQVLAFATDADKRQETEQQKLGSGKRLVVDWTLNIGEQALDICIVSFNQSASSVFVLGERNFFCLKDNGQIRFMKKLDWSPSCFLPYCSVSEGTINTLIGNHNNMLHIYQDVTLKWATQLPHIPVAVRVGCLHDLKGVIVTLSDDGHLQCSYLGTDPSLFQAPNVQSRELNYDELDVEMKELQKIIKDVNKSQGVWPMTEREDDLNVSVVVSPNFDSVSQATDVEVGTDLVPSVTVKVTLQNRVILQKAKLSVYVQPPLELTCDQFTFEFMTPDLTRTVSFSVYLKRSYTPSELEGNAVVSYSRPTDRNPDGIPRVIQCKFRLPLKLICLPGQPSKTASHKITIDTNKSPVSLLSLFPGFASQSDDDQVNVMGFHFLGGARITVLASKTSQRYRIQSEQFEDLWLITNELILRLQEYFEKQGVKDFACSFSGSIPLQEYFELIDHHFELRINGEKLEELLSERAVQFRAIQRRLLARFKDKTPAPLQHLDTLLDGTYKQVIALADAVEENQGNLFQSFTRLKSATHLVILLIALWQKLSADQVAILEAAFLPLQEDTQELGWEETVDAAISHLLKTCLSKSSKEQALNLNSQLNIPKDTSQLKKHITLLCDRLSKGGRLCLSTDAAAPQTMVMPGGCTTIPESDLEERSVEQDSTELFTNHRHLTAETPRPEVSPLQGVSE
Consider B2, for which the binding entry in the test with EGFP-IFT38(WT) (human) [3] and with EGFP-IFT38(WT) (human) [1] was “binds” in each case.

B3: mCherry (mChe)-fused BBS9 (protein, UniProt Q3SYG4 1-887)
chain: B2 chain 2
For the molecule B3, the binding result in the test with EGFP-IFT38(WT) (human) [3] and in the test with EGFP-IFT38(WT) (human) [1] was “no binding” throughout.

B4: mCherry (mChe)-fused BBS1 (protein, UniProt Q8NFJ9 1-593)
chain: B2 chain 1
With B4, the binding entry in the test with EGFP-IFT38(WT) (human) [3] and in the test with EGFP-IFT38(WT) (human) [1] was “no binding” each time.
